Measured values from the supplement of paper PMC3334620.
Over roughly 33,000 sequences, “E-score (-0.5 to 0.5)” has its median near -0.043; the highest 2% begin near 0.37. This is one part of the list.

target: T1, Upc2 (UniProt Q12151); test: PBM E-score (8-mer binding enrichment) (E-score (-0.5 to 0.5)); higher = stronger / more preferred TF binding; most listed sequences are background and not binding sites; conditions: protein concentration: 200 nM; construct: GST-full length
T1 sequence: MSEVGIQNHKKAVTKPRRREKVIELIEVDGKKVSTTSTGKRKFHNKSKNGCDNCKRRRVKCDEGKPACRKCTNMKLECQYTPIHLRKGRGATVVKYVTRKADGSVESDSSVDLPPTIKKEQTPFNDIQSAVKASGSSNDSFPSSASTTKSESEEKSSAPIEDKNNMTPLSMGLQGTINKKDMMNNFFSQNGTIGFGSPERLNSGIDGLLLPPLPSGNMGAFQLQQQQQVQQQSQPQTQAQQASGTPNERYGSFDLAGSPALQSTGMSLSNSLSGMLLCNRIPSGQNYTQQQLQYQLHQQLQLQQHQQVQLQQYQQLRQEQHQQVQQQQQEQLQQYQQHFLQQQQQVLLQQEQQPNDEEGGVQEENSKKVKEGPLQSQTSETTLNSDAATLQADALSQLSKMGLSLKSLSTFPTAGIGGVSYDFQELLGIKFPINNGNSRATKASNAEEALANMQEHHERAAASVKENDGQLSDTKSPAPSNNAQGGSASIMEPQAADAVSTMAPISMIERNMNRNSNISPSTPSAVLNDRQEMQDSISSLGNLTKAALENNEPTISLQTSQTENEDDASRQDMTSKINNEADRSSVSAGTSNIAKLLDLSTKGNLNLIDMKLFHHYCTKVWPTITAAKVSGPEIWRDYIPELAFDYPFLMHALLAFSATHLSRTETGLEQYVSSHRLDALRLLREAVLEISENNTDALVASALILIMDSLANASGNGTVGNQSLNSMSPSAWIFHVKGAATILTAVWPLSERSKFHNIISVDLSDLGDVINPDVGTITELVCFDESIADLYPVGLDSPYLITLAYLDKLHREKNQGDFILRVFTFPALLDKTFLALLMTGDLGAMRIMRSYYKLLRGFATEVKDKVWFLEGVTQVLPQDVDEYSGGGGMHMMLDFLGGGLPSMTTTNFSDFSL
Outline: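 Using PURExpress in vitro transcription/translation, GST-tagged yeast transcription factors were made in full-length or DNA-binding-domain form. These were applied at about 100-200 nM to double-stranded universal all-10-mer Agilent arrays, and bound protein was detected with fluorescent anti-GST. Scans were normalised with masliner before the Universal PBM Analysis Suite assigned E-scores to ungapped eight-base words pooled with their reverse complements.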

Sequence | PBM E-score
CAAGCTGC | -0.149
CCAAGGAC | -0.247
CAATAACA | -0.225
AGTGCTAC | -0.0322
AGAATTGC | -0.0676
ATGTCCGC | -0.0951
CTGTCTGA | -0.241
TCTGTCAA | -0.0976
CTCGTATC | 0.473
CGGTTTCC | 0.00269
CAACAGTC | -0.262
AATCACGA | -0.0445
CCCTAGGA | -0.27
AGGTACAT | -0.102
TTAGATAA | 0.0648
CGTGCATA | -0.0557
ATAAGGTG | -0.0317
GACATCGC | 0.126
ATGGTCCA | -0.166
TCGGACAA | 0.126
GAATTATC | 0.127
CACAAAAC | 0.0778
CCCCATCC | 0.0739
TATACTCA | 0.207
CCGAAGAA | -0.127

Sequence | PBM E-score
ACGAACCC | 0.301
GCCAAACC | -0.137
GTGAGACA | -0.221
ATCCTATC | -0.186
ATAGGAAA | -0.00053
AGTCCTTC | -0.162
ATAATTTC | -0.0201
GCTCCTCA | -0.203
AGTCAGTA | 0.117
CGATGCCG | -0.0899
CCCATCCA | -0.0182
CAAAGCAA | 0.0363
CGAGCGGC | 0.13
GAGCTAAC | 0.00917
AGTCAGTC | -0.0718
AATTCCGG | -0.124
ACCCCAAT | -0.139
GCCGGCCA | -0.205
ACTCAACC | -0.0568
GTAGTACA | -0.0187
ATCACGAT | -0.122
ACGCTAAG | 0.0293
GGACAGGA | -0.0824
ATCGAAGG | 0.0344
GTGTGAAA | -0.143

Sequence | PBM E-score
AACTTGAG | -0.0698
ATGTGCTA | -0.0598
AGTAACTC | -0.0313
GTCCCACA | -0.0951
CATCCACA | -0.0464
CGACCATC | 0.123
CTATCTGA | -0.0219
GCCGTCGC | 0.142
ACGCTTTA | 0.201
TAATCTGA | -0.124
CGATTTCC | 0.104
CAGGTCAC | -0.333
GGCAGATA | 0.00284
CCCACCGA | -0.162
CAGGCGAC | -0.308
AGTGTGGG | -0.207
GGCGATTA | -0.0121
AGCAAAGG | 0.00827
AATGCTAA | -0.0517
ACGCAGAG | 0.0958
GGTTAAGA | 0.0134
GGTGAAAC | 0.114
TCAGATCA | -0.262
GTACGAGA | 0.472
ACATGACC | -0.0302

Sequence | PBM E-score
AGTAAGAC | -0.0724
GAAACTCC | -0.189
CTTTTATC | 0.00372
ATTTCGAA | 0.126
CTTGTCCC | -0.148
AGCAAATA | -0.127
GGCTCTAA | 0.018
CAAGGGTC | -0.229
CGTAACGC | 0.324
AGGTCAAG | -0.298
CCCGCTTA | 0.218
GCAGCTCC | -0.189
CAGCCATG | -0.19
GTTGCGTA | 0.244
CGAAATAC | 0.243
AAGCTATA | 0.106
ATCTCGTA | 0.464
AACGGAGT | 0.229
ACGTAAGC | 0.137
CGAGGTGC | 0.137
GCTAGCTA | 0.0155
GGTTAGAA | 0.00038
TACTAGAA | -0.0343
ATTATATC | 0.051
GAGCCCAA | -0.11

Sequence | PBM E-score
CATGCACC | -0.179
CTCGAGTC | -0.195
ATGGAGAC | -0.101
CGGTATTC | -0.00151
AAAGTTAT | 0.0721
CCAGATAG | -0.246
GGTATGAA | 0.0119
GGGTTGCA | -0.0944
AAGATTGC | -0.0519
CTGCGTGA | -0.271
TATCCCGA | 0.0238
CAGGTCTC | -0.172
CAAAAAGC | -0.015
CGCGCGGC | 0.108
ATCTTAAC | 0.198
ATTGTCCA | -0.102
AACAATTC | -0.164
AGGTTTAG | -0.00217
CGGAGTCA | -0.11
AGTATAAC | 0.172
CAGGGCCG | -0.134
ATTGCTGC | -0.0333
CAACCCTC | -0.105
GGTTAACA | -0.00714
CCCGGCTA | -0.14

Sequence | PBM E-score
CTATTAAA | -0.0577
CCTGGCAC | -0.155
AATTAGTG | -0.0508
GAATCCCA | -0.126
TCGTTCAA | 0.459
ACAGATTA | -0.111
AGGATGCC | -0.223
AGTAGAAC | -0.0654
ACCTTAGA | -0.132
AGAAGCTG | -0.0427
AGCATTCG | -0.025
ATCATAAC | 0.0132
GGATCTTA | 0.146
CTAGAAGC | -0.155
CCAGTAGA | -0.0976
GAGCGTCC | -0.00382
AATGGACG | -0.0583
AGAGTCGC | 0.0951
ACTCCTAG | -0.306
ATGACACC | 0.0439
TCGGAACA | 0.107
GGGGCTGA | -0.151
ATCGATTA | 0.162
GCACTACA | -0.104
ACGTATCT | 0.0906

Sequence | PBM E-score
CCAATGCC | -0.221
AATGTTGG | -0.12
GAAACCGC | 0.0439
ATTTAACG | 0.387
AAGGGCCT | -0.392
CGTAGCCC | 0.213
AATGGTGC | -0.0257
AGGGGGGA | -0.206
ATTCTTCA | -0.00023
CACTGGGA | -0.199
TAGTTCCA | -0.198
AATATCTG | -0.124
CTGATGTC | -0.118
ACTGAACC | 0.042
AACGGCGA | 0.363
GGGCATCA | -0.295
CGGTACAC | -0.0353
GACTGATA | -0.216
AGCTCCGC | -0.0544
AACAAGAC | 0.0159
ACTAACGC | 0.0466
AGGTTTGC | -0.0369
